In the supplement of paper PMC8728848:
The list shows a part of the results.

Tests used:
Assay in all cases: glycan array binding signal (z-score within array); higher = stronger binding
Conditions in all cases: glycan notation: IUPAC condensed, linker removed
[1] = biological target: GlcNAc(b1-4)GlcNAc(b1-4)GlcNAc(b1-4)GlcNAc(b1-4)GlcNAc(b1-4)GlcNAc
Method in brief: (§1)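 Glycan array data were curated from 3228 arrays in the Consortium for Functional Glycomics database and kept only where the protein sequence was available. Glycan names were converted to IUPAC-condensed notation, and columns mapping to the same glycan were averaged. The binding signal is a within-array Z-score, averaged across arrays of the same protein sequence at different concentrations or buffers and across linkers. Negative Z-scores can be read as non-binding.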

[2] = biological target: GlcNAc(b1-4)[GlcNAc(b1-6)]GalNAc
Method in brief: as §1

[3] = biological target: GlcNAc(b1-6)Gal(b1-4)GlcNAc
Method in brief: as §1

GlcNAc(b1-6)GalNAc = biological target: GlcNAc(b1-6)GalNAc
Method in brief: as §1

[4] = biological target: GlcNAc6S(b1-3)Gal(b1-4)GlcNAc
Method in brief: as §1

Kdn(a2-3)Gal(b1-3)GalNAc = biological target: Kdn(a2-3)Gal(b1-3)GalNAc
Method in brief: as §1

Kdn(a2-3)Gal(b1-3)GlcNAc = biological target: Kdn(a2-3)Gal(b1-3)GlcNAc
Method in brief: as §1

Kdn(a2-3)Gal(b1-4)Glc = biological target: Kdn(a2-3)Gal(b1-4)Glc
Method in brief: as §1

Kdn(a2-3)Gal(b1-4)GlcNAc = biological target: Kdn(a2-3)Gal(b1-4)GlcNAc
Method in brief: as §1

[5] = biological target: Kdn(a2-3)Gal(b1-4)[Fuc(a1-3)]GlcNAc
Method in brief: as §1

Kdn(a2-6)Gal(b1-4)GlcNAc = biological target: Kdn(a2-6)Gal(b1-4)GlcNAc
Method in brief: as §1

[6] = biological target: Man(a1-2)Man(a1-2)Man(a1-3)Man
Method in brief: as §1

[7] = biological target: Man(a1-2)Man(a1-2)Man(a1-6)[Man(a1-3)]Man
Method in brief: as §1

Man(a1-2)Man(a1-3)Man = biological target: Man(a1-2)Man(a1-3)Man
Method in brief: as §1

[8] = biological target: Man(a1-2)Man(a1-3)[Man(a1-2)Man(a1-6)]Man
Method in brief: as §1

[9] = biological target: Man(a1-2)Man(a1-3)[Man(a1-2)Man(a1-6)]Man(a1-6)[Man(a1-2)Man(a1-2)Man(a1-3)]Man
Method in brief: as §1

[10] = biological target: Man(a1-2)Man(a1-3)[Man(a1-2)Man(a1-6)]Man(a1-6)[Man(a1-2)Man(a1-2)Man(a1-3)]Man(b1-4)GlcNAc(b1-4)GlcNAc
Method in brief: as §1

[11] = biological target: Man(a1-2)Man(a1-3)[Man(a1-6)]Man(a1-6)[Man(a1-2)Man(a1-3)]Man(b1-4)GlcNAc(b1-4)GlcNAc
Method in brief: as §1

[12] = biological target: Man(a1-2)Man(a1-6)[Man(a1-3)]Man(a1-6)[Man(a1-2)Man(a1-2)Man(a1-3)]Man
Method in brief: as §1

[13] = biological target: Man(a1-2)Man(a1-6)[Man(a1-3)]Man(a1-6)[Man(a1-2)Man(a1-2)Man(a1-3)]Man(b1-4)GlcNAc(b1-4)GlcNAc
Method in brief: as §1

Man(a1-3)[Man(a1-6)]Man = biological target: Man(a1-3)[Man(a1-6)]Man
Method in brief: as §1

[14] = biological target: Man(a1-3)[Man(a1-6)]Man(a1-6)[Man(a1-2)Man(a1-3)]Man(b1-4)GlcNAc(b1-4)GlcNAc
Method in brief: as §1

[15] = biological target: Man(a1-3)[Man(a1-6)]Man(a1-6)[Man(a1-3)]Man
Method in brief: as §1

[16] = biological target: Man(a1-3)[Man(a1-6)]Man(a1-6)[Man(a1-3)]Man(b1-4)GlcNAc(b1-4)GlcNAc
Method in brief: as §1

[17] = biological target: Man(a1-3)[Man(a1-6)]Man(b1-4)GlcNAc(b1-4)GlcNAc
Method in brief: as §1

[18] = biological target: Man(a1-3)[Man(a1-6)]Man(b1-4)GlcNAc(b1-4)[Fuc(a1-6)]GlcNAc
Method in brief: as §1

Man(a1-6)Man = biological target: Man(a1-6)Man
Method in brief: as §1

Man(b1-4)GlcNAc = biological target: Man(b1-4)GlcNAc
Method in brief: as §1

MurNAc(b1-4)GlcNAc = biological target: MurNAc(b1-4)GlcNAc
Method in brief: as §1

Neu5Ac(a2-3)Gal = biological target: Neu5Ac(a2-3)Gal
Method in brief: as §1

[19] = biological target: Neu5Ac(a2-3)Gal(b1-3)GalNAc
Method in brief: as §1

[20] = biological target: Neu5Ac(a2-3)Gal(b1-3)GalNAc(b1-3)Gal(a1-4)Gal(b1-4)Glc
Method in brief: as §1

[21] = biological target: Neu5Ac(a2-3)Gal(b1-3)GalNAc(b1-4)[Neu5Ac(a2-3)]Gal(b1-4)Glc
Method in brief: as §1

[22] = biological target: Neu5Ac(a2-3)Gal(b1-3)GalNAc(b1-4)[Neu5Ac(a2-8)Neu5Ac(a2-3)]Gal(b1-4)Glc
Method in brief: as §1

[23] = biological target: Neu5Ac(a2-3)Gal(b1-3)GalNAc6S
Method in brief: as §1

[24] = biological target: Neu5Ac(a2-3)Gal(b1-3)GlcNAc
Method in brief: as §1

[25] = biological target: Neu5Ac(a2-3)Gal(b1-3)GlcNAc(b1-2)Man
Method in brief: as §1

[26] = biological target: Neu5Ac(a2-3)Gal(b1-3)GlcNAc(b1-2)Man(a1-3)[GlcNAc(b1-4)][Neu5Ac(a2-3)Gal(b1-3)GlcNAc(b1-2)Man(a1-6)]Man(b1-4)GlcNAc(b1-4)GlcNAc
Method in brief: as §1

[27] = biological target: Neu5Ac(a2-3)Gal(b1-3)GlcNAc(b1-2)Man(a1-3)[Neu5Ac(a2-3)Gal(b1-3)GlcNAc(b1-2)Man(a1-6)]Man(b1-4)GlcNAc(b1-4)GlcNAc
Method in brief: as §1

[28] = biological target: Neu5Ac(a2-3)Gal(b1-3)GlcNAc(b1-3)Gal(b1-3)GlcNAc
Method in brief: as §1

[29] = biological target: Neu5Ac(a2-3)Gal(b1-3)GlcNAc(b1-3)Gal(b1-4)GlcNAc
Method in brief: as §1

[30] = biological target: Neu5Ac(a2-3)Gal(b1-3)GlcNAc(b1-3)GalNAc
Method in brief: as §1

[31] = biological target: Neu5Ac(a2-3)Gal(b1-3)GlcNAc(b1-4)Gal(b1-4)Glc
Method in brief: as §1

[32] = biological target: Neu5Ac(a2-3)Gal(b1-3)GlcNAc(b1-6)GalNAc
Method in brief: as §1

[33] = biological target: Neu5Ac(a2-3)Gal(b1-3)GlcNAc6S
Method in brief: as §1

B1: CBM13 2a (Mycobacterium tuberculosum), P64849 (protein)
chain: DGPVQLKSRLGDVCLDAPSGSWFSPLVINPCNGTDFQRWNLTDDRQVESVAFPGECVNIGNALWARLQPCVNWISQHWTVQPDGLVKSDLDACLTVLGGPDPGTWVSTRWCDPNAPDQQWDSVPLEHHHHHH
- glycan array binding signal (z-score) [1]: -0.084
- glycan array binding signal (z-score) [2]: -0.38
- glycan array binding signal (z-score) [3]: -0.354
- glycan array binding signal (z-score) (GlcNAc(b1-6)GalNAc): -0.255
- glycan array binding signal (z-score) [4]: -0.288
- glycan array binding signal (z-score) (Kdn(a2-3)Gal(b1-3)GalNAc): -0.215
- glycan array binding signal (z-score) (Kdn(a2-3)Gal(b1-3)GlcNAc): -0.287
- glycan array binding signal (z-score) (Kdn(a2-3)Gal(b1-4)Glc): -0.161
- glycan array binding signal (z-score) (Kdn(a2-3)Gal(b1-4)GlcNAc): -0.282
- glycan array binding signal (z-score) [5]: -0.089
- glycan array binding signal (z-score) (Kdn(a2-6)Gal(b1-4)GlcNAc): -0.022
- glycan array binding signal (z-score) [6]: -0.193
- glycan array binding signal (z-score) [7]: 0.088
- glycan array binding signal (z-score) (Man(a1-2)Man(a1-3)Man): -0.191
- glycan array binding signal (z-score) [8]: -0.144
- glycan array binding signal (z-score) [9]: -0.338
- glycan array binding signal (z-score) [10]: 2.04
- glycan array binding signal (z-score) [11]: -0.202
- glycan array binding signal (z-score) [12]: -0.405
- glycan array binding signal (z-score) [13]: -0.434
- glycan array binding signal (z-score) (Man(a1-3)[Man(a1-6)]Man): -0.189
- glycan array binding signal (z-score) [14]: 6.51
- glycan array binding signal (z-score) [15]: -0.112
- glycan array binding signal (z-score) [16]: -0.145
- glycan array binding signal (z-score) [17]: 0.415
- glycan array binding signal (z-score) [18]: -0.171
- glycan array binding signal (z-score) (Man(a1-6)Man): -0.141
- glycan array binding signal (z-score) (Man(b1-4)GlcNAc): -0.238
- glycan array binding signal (z-score) (MurNAc(b1-4)GlcNAc): -0.304
- glycan array binding signal (z-score) (Neu5Ac(a2-3)Gal): -0.233
- glycan array binding signal (z-score) [19]: -0.15
- glycan array binding signal (z-score) [20]: 0.272
- glycan array binding signal (z-score) [21]: -0.344
- glycan array binding signal (z-score) [22]: -0.119
- glycan array binding signal (z-score) [23]: -0.262
- glycan array binding signal (z-score) [24]: -0.077
- glycan array binding signal (z-score) [25]: -0.015
- glycan array binding signal (z-score) [26]: -0.103
- glycan array binding signal (z-score) [27]: -0.107
- glycan array binding signal (z-score) [28]: -0.075
- glycan array binding signal (z-score) [29]: -0.207
- glycan array binding signal (z-score) [30]: 0.305
- glycan array binding signal (z-score) [31]: -0.032
- glycan array binding signal (z-score) [32]: -0.375
- glycan array binding signal (z-score) [33]: 1.68
